The values that follow come from paper PMC10079535, “Serine-arginine protein kinase 1 (SRPK1) promotes EGFR-TKI resistance by enhancing GSK3β Ser9 autophosphorylation independent of its kinase activity in non-small-cell lung cancer” (Oncogene, 2023).

The target of one assay is T1, His-SRPK1 WT (human, UniProt Q96SB4 1-655).
T1 construct: Human SRPK1 FL (full length) cDNA cloned with a His tag; also called SRPK1-FL; source: E. coli (BL21 DE3)
The assay can be described thus: pull-down; His-tagged proteins incubated with bead-bound GST fusion proteins; beads washed at least five times with PBS; Western blot. The following applies: both partners purified.

The target of assay [1] is T2, His-SRPK1(K109A), kinase-dead mutant (human, UniProt Q96SB4 1-655, K109A).
T2 construct: Human SRPK1 with the kinase-dead mutation K109A, His tag; source: E. coli (BL21 DE3)
Described as above. The following applies: both partners purified.

B1: GST-GSK3β (K85A), kinase-dead mutant (natural protein)
chain: not shown
notes: Human GSK3β with the kinase-dead mutation K85A, GST tag
B1: the binding result (with His-SRPK1 WT; in assay [1]) was “binds” in each case.

B2: GST-GSK3β (S9A/K85A), double mutant (natural protein)
chain: not shown
notes: Human GSK3β with the mutations S9A and K85A, GST tag
As to B2, the binding result (with His-SRPK1 WT; in assay [1]) was “binds” in each case.

B3: GST-GSK3β (S9A), phosphorylation-defective mutant (natural protein)
chain: not shown
notes: Human GSK3β with the phosphorylation-defective mutation S9A, GST tag
On to B3, for which the binding result (with His-SRPK1 WT; in assay [1]) was “binds” each time.
